Results from patent publication US7105647 (WISCONSIN ALUMNI RESEARCH FOUNDATION, dated 2006).

B1: AH receptor nuclear translocator (ARNT), full length (other, human, UniProt P27540 1-789, looked up)
chain: MAATTANPEMTSDVPSLGPAIASGNSGPGIQGGGAIVQRAIKRRPGLDFDDDGEGNSKFLRCDDDQMSNDKERFARSDDEQSSADKERLARENHSEIERRRRNKMTAYITELSDMVPTCSALARKPDKLTILRMAVSHMKSLRGTGNTSTDGSYKPSFLTDQELKHLILEAADGFLFIVSCETGRVVYVSDSVTPVLNQPQSEWFGSTLYDQVHPDDVDKLREQLSTSENALTGRILDLKTGTVKKEGQQSSMRMCMGSRRSFICRMRCGSSSVDPVSVNRLSFVRNRCRNGLGSVKDGEPHFVVVHCTGYIKAWPPAGVSLPDDDPEAGQGSKFCLVAIGRLQVTSSPNCTDMSNVCQPTEFISRHNIEGIFTFVDHRCVATVGYQPQELLGKNIVEFCHPEDQQLLRDSFQQVVKLKGQVLSVMFRFRSKNQEWLWMRTSSFTFQNPYSDEIEYIICTNTNVKNSSQEPRPTLSNTIQRPQLGPTANLPLEMGSGQLAPRQQQQQTELDMVPGRDGLASYNHSQVVQPVTTTGPEHSKPLEKSDGLFAQDRDPRFSEIYHNINADQSKGISSSTVPATQQLFSQGNTFPPTPRPAENFRNSGLAPPVTIVQPSASAGQMLAQISRHSNPTQGATPTWTPTTRSGFSAQQVATQATAKTRTSQFGVGSFQTPSSFSSMSLPGAPTASPGAAAYPSLTNRGSNFAPETGQTAGQFQTRTAEGVGVWPQWQGQQPHHRSSSSEQHVQQPPAQQPGQPEVFQEMLSMLGDQSNSYNNEEFPDLTMFPPFSE
B2: mouse MOP7 (other)
chain: MDWDQDRSNTELRKEKSRDAARSRRSQETEVLYQLAHTLPFARGVSAHLDKASIMRLTISYLRMHRLCAAGEWNQVEKGGEPLDACYLKALEGFVMVLTAEGDMAYLSENVSKHLGLSQLELIGHSIFDFIHPCDQEELQDALTPRPNLSKKKLEAPTERHFSLRMKSTLTSRGRTLNLKAATWKVLHCSGHMRAYKPPAQTSPAGSPRSEPPLQCLVLICEAIPHPASLEPPLGRGAFLSRHSLDMKFTYCDERIAEVAGYSPDDLIGCSAYEYIHALDSDAVSRSIHTLLSKGQAVTGQYRFLARTGGYLWTQTQATVVSGGRGPQSESIICVHFLISRVEETGVVLSLEQTEQHTRRPPRLSASSQKGIPGNSVDSPAPRILAFLHPPALSEASLAADPRRFCSPDLRRLMAPILDGPPPAATPSTPQATRRPQSPLPADLPDKLAVGLENAHRLSTAQKNKTVETDLDIAQDSDTLDLEMLAPYISMDDDFQLNSSEQLPKVHRRPPRVARRPRARSFHGLSPPIPEPSLLPRWGSDPRLNCSSPSRGDRPTASLMPGTRKRALAQSSEDKGLELLEIKPPKRSPRLEPGSFLLPPLSLSFLLQGRQLLGNQQDPRAPLVHSHEPLGLAPSLLSLCQHEETVQPRNHFPPAAGLGQTH

Legend:
Assay in all cases: cell-based or functional assay
MOP1/HIF1α = MOP1/HIF1α (human, UniProt Q16665 1-826)
Chain of MOP1/HIF1α (Q16665 whole entry): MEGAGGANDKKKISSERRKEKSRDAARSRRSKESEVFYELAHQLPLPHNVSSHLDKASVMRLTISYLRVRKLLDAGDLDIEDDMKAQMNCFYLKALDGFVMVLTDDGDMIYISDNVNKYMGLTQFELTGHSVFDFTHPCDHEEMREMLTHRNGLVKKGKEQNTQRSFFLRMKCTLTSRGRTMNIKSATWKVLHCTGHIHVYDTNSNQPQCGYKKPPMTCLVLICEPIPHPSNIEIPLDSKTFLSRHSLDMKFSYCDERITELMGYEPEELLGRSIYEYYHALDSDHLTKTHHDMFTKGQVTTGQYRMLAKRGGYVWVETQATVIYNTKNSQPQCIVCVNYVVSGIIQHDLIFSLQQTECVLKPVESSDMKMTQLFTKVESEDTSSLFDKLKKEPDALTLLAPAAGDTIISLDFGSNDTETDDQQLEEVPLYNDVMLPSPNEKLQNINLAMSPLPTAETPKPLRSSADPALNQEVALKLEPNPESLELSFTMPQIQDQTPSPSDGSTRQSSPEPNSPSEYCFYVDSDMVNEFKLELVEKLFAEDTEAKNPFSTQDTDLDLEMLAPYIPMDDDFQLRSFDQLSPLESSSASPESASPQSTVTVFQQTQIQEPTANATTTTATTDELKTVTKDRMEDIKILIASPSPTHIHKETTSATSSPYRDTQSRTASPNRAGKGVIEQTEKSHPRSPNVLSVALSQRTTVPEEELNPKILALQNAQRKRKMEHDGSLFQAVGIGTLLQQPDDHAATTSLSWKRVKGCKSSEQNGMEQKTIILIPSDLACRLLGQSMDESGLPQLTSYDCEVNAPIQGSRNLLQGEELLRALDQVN

MOP2 = MOP2 (human, UniProt Q99814 1-870)
[1] = biological target: B1

Row | Binder | luciferase reporter with six copies of the M13 element, COS-1 cells (MOP1/HIF1α) [fold] | luciferase reporter with six copies of the M13 element, COS-1 cells (MOP2) [fold] | luciferase reporter driven by six HRE enhancer elements, COS-1 cells [1] [fold]
1 | B1 | 14.1 | 8.1 | –
2 | B2 | – | – | 11.7
